PubChem BioAssay AID485290 (National Center for Advancing Translational Sciences (NCATS), 2010)
Several values for one entry are separate records, joined by “and”; a condition that tells them apart may be missing. Equal entries are not always repeated. Out of some 350,000 compounds screened, about 990 (0.28%) were called active. This list was built around the results that the source calls inconclusive (neither active nor inactive); the mix of calls is not that of the screen. The call rests on the fitted dose curve; in most records, active means well fitted inhibition curve with a large enough effect; inconclusive means small, poorly fitted or top-dose-only effect; inactive means no such curve, though single readings can be large or run the other way. Potencies of inconclusive entries are doubtful fits and often do not repeat.

What follows are compounds tested against Tyrosyl-DNA phosphodiesterase 1 (Homo sapiens) (UniProt Q9NUW8) (assay: qHTS Assay for Inhibitors of Tyrosyl-DNA Phosphodiesterase (TDP1)). Settings: recombinant TDP1, AlphaScreen DNA substrate cleavage; activity change, negative = inhibition: at 130 µM (top of the series) unless noted.
Chain of UniProt Q9NUW8 (Q9NUW8 whole entry, looked up): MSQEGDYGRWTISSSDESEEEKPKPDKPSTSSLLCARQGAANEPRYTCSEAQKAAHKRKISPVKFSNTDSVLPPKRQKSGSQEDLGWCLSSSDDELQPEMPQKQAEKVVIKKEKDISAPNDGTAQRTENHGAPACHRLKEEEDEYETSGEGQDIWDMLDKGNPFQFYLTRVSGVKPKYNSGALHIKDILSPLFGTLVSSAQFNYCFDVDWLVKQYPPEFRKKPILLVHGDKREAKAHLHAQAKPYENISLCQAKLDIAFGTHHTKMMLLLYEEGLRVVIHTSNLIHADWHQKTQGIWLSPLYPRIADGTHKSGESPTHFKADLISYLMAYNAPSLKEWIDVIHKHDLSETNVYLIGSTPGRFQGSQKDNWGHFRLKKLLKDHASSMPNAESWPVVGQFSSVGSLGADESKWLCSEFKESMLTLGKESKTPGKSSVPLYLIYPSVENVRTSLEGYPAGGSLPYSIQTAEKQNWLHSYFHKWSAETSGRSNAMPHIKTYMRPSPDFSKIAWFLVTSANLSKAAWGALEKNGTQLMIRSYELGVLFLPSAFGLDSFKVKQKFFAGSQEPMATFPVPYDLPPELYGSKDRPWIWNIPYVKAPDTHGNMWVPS
In short: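 Compounds were preincubated with Tdp1 (1 nM final) for 15 min at room temperature before substrate (15 nM final) started a 5 min reaction; beads (10 ug/ml final) were then added for 10 min before AlphaScreen detection.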
Further: nearly all actives have a fitted effect of over 40% in size.
On the % scale 0 is the no-effect control and ±100 the full control effect; potency means the concentration at half of the fitted maximal effect; tags describe the fitted curve by direction and shape.

Potency, inconclusive:
COc1ccc(-c2cc(C(=O)N3CCCCCC3)c3ccccc3n2)cc1 1.58 µM [inhibitor, full curve, poor fit]
Cc1ccccc1Sc1c(C#N)c(-c2ccccc2)nn1C 39.8 µM [inhibitor, single point]
C/C(N)=C(/C#N)C(=O)COC(=O)C1Cc2ccccc2CN1S(C)(=O)=O (configuration not stated) 39.8 µM [inhibitor, partial curve]
COCCN(C(=O)CNC(=O)c1ccco1)C(C(=O)NC1CCCCC1)c1cccnc1 (configuration not stated) 3.55 µM [inhibitor, single point]
O=S1(=O)Nc2c(cc(Cl)c3ccc(Cl)nc23)-c2ccccc21 50.1 µM [inhibitor, partial curve]
Fc1cc(F)c2nc(Nc3nc4cc5c(cc4s3)OCO5)sc2c1 50.1 µM [inhibitor, partial curve, poor fit]
Cc1cc(C)n2cc(CSCc3ccco3)nc2n1 79.4 µM [inhibitor, single point]
CCCc1ccc(OCc2nc(-c3ccc(NC(=O)c4ccco4)cc3)no2)cc1 70.8 µM [inhibitor, single point]
O=C(CSCCSCC(=O)c1ccco1)c1ccco1 12.6 µM [inhibitor, partial curve]
Cc1cc(NC2CCCCC2)nc(-c2ccccc2O)n1 17.8 µM [inhibitor, full curve, poor fit]
CCc1nc2sc3ccccc3c(=O)c2c(=O)n1Cc1ccco1 35.5 µM [inhibitor, partial curve]
COc1cccc(CN(C)CC(=O)NC(=O)NCc2ccco2)c1 50.1 µM [inhibitor, partial curve]
COC(=O)c1ccc(COc2ccccc2/C=C/C(=O)c2ccc(OCC(=O)O)cc2)cc1 89.1 µM [inhibitor, single point]
CCOC(=O)CNc1nc(Oc2ccc(=O)n(C)n2)nc(N(CC)CC)n1 89.1 µM [inhibitor, single point]
CC(/C=N/NC(=O)Cn1cnc2c1c(=O)n(C)c(=O)n2C)=C\c1ccco1 100 µM [inhibitor, single point]
CC(=O)N1CCN(c2nc3cc4c(cc3nc2NS(=O)(=O)c2ccccc2)OCCO4)CC1 89.1 µM [inhibitor, single point]
Oc1ccc(/C=N/N2CCOCC2)c(O)c1O 8.91 µM [inhibitor, full curve]
O=c1[nH]c2ccccc2n2c(-c3ccccc3)nnc12 28.2 µM [inhibitor, single point]
NCCOB(c1ccccc1)c1ccccc1 7.94 µM [inhibitor, single point] and 35.5 µM [inhibitor, single point]
CN(C)Cc1cc(O)c(CN(C)C)cc1O 22.4 µM [inhibitor, full curve, poor fit]
C#CCOCCOCCOCCNc1nc(N2CCN(C(=O)[C@H](CCC(=O)O)n3cc(C(N)Cc4ccc(O)cc4)nn3)CC2)nc(N2CCN(C(=O)[C@H](Cc3ccc(O)cc3)n3cc(C(N)[C@H](C)CC)nn3)CC2)n1 (some centres not stated) 20 µM [inhibitor, single point]
CN=C1CC(C)(C)CC(=O)/C1=C(/O)CCC(=O)NC 100 µM [inhibitor, single point]
Cc1cc(C)n2c(SC/C(O)=C(\C#N)c3nc4ccccc4[nH]3)nnc2n1 56.2 µM [inhibitor, partial curve]
O=C(OCc1cc(=O)n2c(n1)sc1ccccc12)c1cccc(O)c1 44.7 µM [inhibitor, partial curve]
Cc1ccc(C(=O)NNC(=O)c2ccc(S(=O)(=O)N3CCCCC3)cc2)cc1 56.2 µM [inhibitor, partial curve]
CCOC(=O)C1=C(O)CSC1=Nc1ccc(C)cc1 31.6 µM [inhibitor, single point]
COc1cc(/C=N/NC(=O)c2cccnc2)ccc1OCC(=O)Nc1ccc(C)cc1 56.2 µM [inhibitor, partial curve, poor fit]
COc1ccc(/C=N/NC(=O)c2ccc3nc[nH]c3c2)cc1OC 0.282 µM [inhibitor, full curve]
CCOCCn1c(=O)c2c(nc3n2CCN3c2ccc(C)c(C)c2)n(C)c1=O 28.2 µM [inhibitor, single point]
NS(=O)(=O)c1ccc(N=Nc2c(O)[nH]c3ccc(Br)cc23)cc1 89.1 µM [inhibitor, single point]
Oc1oc(-c2ccccc2)nc1C=Nc1cccc2ccccc12 14.1 µM [inhibitor, full curve, poor fit]
Cc1cc(C)cc(N(C(=O)c2ccco2)C(C(=O)NC2CCCC2)c2ccncc2)c1 (configuration not stated) 89.1 µM [inhibitor, single point]
Cc1ccc(C)n1C(Cc1ccccc1)C(=O)O (configuration not stated) 15.8 µM [inhibitor, full curve]
NS(=O)(=O)c1ccc(NC(=O)/C=C/c2ccco2)cc1 5.01 µM [inhibitor, full curve, poor fit]
Cc1cc(NC(=O)C2C3C=CC(C3)C2C(=O)O)no1 (configuration not stated) 79.4 µM [inhibitor, partial curve]
Nc1ccc(O)c(-c2nc3ccccc3s2)c1 44.7 µM [inhibitor, single point]
Cc1cc(NC(=O)CSc2nnc(-c3ccccc3F)n2N)no1 89.1 µM [inhibitor, single point]
COC(=O)c1c(-c2cccs2)csc1NC(=O)c1ccc(Br)cc1 35.5 µM [inhibitor, partial curve]
COC(=O)c1c(-c2cccs2)csc1NC(=O)c1cccc(Cl)c1 22.4 µM [inhibitor, single point]
CN(CC(=O)NCc1ccncc1)S(=O)(=O)c1ccc(Cl)cc1 39.8 µM [inhibitor, single point]
O=C(O)c1ccc(-c2ccc(/C=C3\NC(=O)N(Cc4ccc(Cl)cc4)C3=O)o2)cc1Cl 10 µM [inhibitor, partial curve, poor fit]

Potency, active:
O=[N+]([O-])c1ccc(/C=N/Nc2ncc(Br)cn2)cc1 50.1 µM
O=C(O)c1cc(-c2ccc(/C=C3\NC(=O)N(c4ccccc4)C3=O)o2)ccc1Cl 8.91 µM
O=c1c2ccccc2[nH]c2ccc(O)cc12 39.8 µM
CCCCC#Cc1ccccc1CC(=O)Nc1ccccc1 50.1 µM
Cc1cccc(NC(=O)CN2C(=O)S/C(=C\c3ccc(-c4cccc(C(=O)O)c4C)o3)C2=O)c1 25.1 µM
Cc1ccc(OCC(=O)N(C)CC(=O)NCc2ccco2)c(Br)c1 31.6 µM
COc1ccc(-c2cc(C(=O)NCc3ccco3)c3ccccc3n2)c(OC)c1 8.91 µM
CC(=O)N1CCOc2ccc(S(=O)(=O)NCc3ccc(F)cc3)cc21 44.7 µM
COC(=O)COc1ccc2oc(=O)cc(-c3cc4cccc(OC)c4o3)c2c1 44.7 µM
CCOc1cc(N2CCOCC2)c(OCC)cc1NC(C)C(=O)N1CCN(CC)CC1 (configuration not stated) 12.6 µM
Nc1cc(C(=O)O)ccc1Sc1ccccc1C(=O)O 44.7 µM
N#Cc1c(N)sc(=S)c2c1CCCCC2 10 µM
O=C(Cc1cccs1)NC1C(=O)N2C(C(=O)[O-])=C(C[n+]3ccccc3)CSC12 (configuration not stated) 2.24 µM

Activity change, negative = inhibition, inconclusive:
COc1ccc(N2C(=O)c3ccccc3NC2c2ccc(NC(C)=O)cc2)c(OC)c1 (configuration not stated) -24.2% [inhibitor] [at 0.0935 µM]

Activity change, negative = inhibition, inactive:
Cc1cccc(C)c1NC(=O)CN(C)C(=O)c1ccc2c(=O)n3c(nc2c1)CCC3 0.535%
COc1ccc(-c2noc(CNC(=O)COc3cccc(C)c3C)n2)cc1 2.45%
O=C(O)C1(C(=O)O)CCC1.[NH2-].[NH2-].[Pt+2] 22.6%
COC(=O)[C@H](Cc1ccccc1)NC(=O)NCc1cccs1 9.76%
CC(=O)OCCn1c(C)[n+](CCOC(C)=O)c2cc(Cl)c(Cl)cc21 7.89%
CCCc1nc2ccccc2n1CCc1ccccc1 0%
COC(=O)Nc1ccc(=O)n(Cc2c(Cl)cccc2Cl)c1 -1.98%
Cc1cccc(/C=N\NC(=O)c2ccc(Cl)cc2)c1O 5.97%
CCCOc1ccc(C(=O)NNC(=S)NC(=O)c2cc(-c3ccccc3)nc3ccccc23)cc1 10.7%
c1ccc(-c2nnc3sc(CN4CCc5ccccc54)cn23)cc1 -2.44%
O=C(c1cn(-c2ccccc2)nc1-c1cccc([N+](=O)[O-])c1)N1CCCCC1 2.4%
O=C1C(C=Nc2ccccc2O)=C(O)c2ccccc21 1.02%
CSc1nsc(SCC(=O)Nc2ccc(OC(C)=O)cc2)n1 3.07%
Cc1ccc(NS(=O)(=O)c2cc(NC(=O)c3ccc4c(c3)NC(=O)CS4)ccc2C)c(C)c1 4.79%
COc1ccccc1NC(=O)CCN1C(=O)C2C3CCC(C3)C2C1=O (configuration not stated) 2.05%
Cc1cccc(-n2c(Cc3ccccc3)nnc2SCC(=O)N2CCOCC2)c1 3.03%
COc1ccc(-c2sc3cc(OC)c(OC)cc3c2-c2ccc(O)cc2)cc1 4.83%
